Data taken from article PMC4336329 (PLoS ONE, 2015).
Among all 310,000 compounds or so, about 2,200 (0.71%) showed an effect of 50% or more. The effect is printed as a negative number. The list shows a part of the results.

molecular target: human ether-à-go-go-related gene (hERG) potassium channel (human, UniProt Q12809); assay: primary screen, population patch clamp on CHO cells stably expressing hERG
Sequence (Q12809 whole entry, looked up): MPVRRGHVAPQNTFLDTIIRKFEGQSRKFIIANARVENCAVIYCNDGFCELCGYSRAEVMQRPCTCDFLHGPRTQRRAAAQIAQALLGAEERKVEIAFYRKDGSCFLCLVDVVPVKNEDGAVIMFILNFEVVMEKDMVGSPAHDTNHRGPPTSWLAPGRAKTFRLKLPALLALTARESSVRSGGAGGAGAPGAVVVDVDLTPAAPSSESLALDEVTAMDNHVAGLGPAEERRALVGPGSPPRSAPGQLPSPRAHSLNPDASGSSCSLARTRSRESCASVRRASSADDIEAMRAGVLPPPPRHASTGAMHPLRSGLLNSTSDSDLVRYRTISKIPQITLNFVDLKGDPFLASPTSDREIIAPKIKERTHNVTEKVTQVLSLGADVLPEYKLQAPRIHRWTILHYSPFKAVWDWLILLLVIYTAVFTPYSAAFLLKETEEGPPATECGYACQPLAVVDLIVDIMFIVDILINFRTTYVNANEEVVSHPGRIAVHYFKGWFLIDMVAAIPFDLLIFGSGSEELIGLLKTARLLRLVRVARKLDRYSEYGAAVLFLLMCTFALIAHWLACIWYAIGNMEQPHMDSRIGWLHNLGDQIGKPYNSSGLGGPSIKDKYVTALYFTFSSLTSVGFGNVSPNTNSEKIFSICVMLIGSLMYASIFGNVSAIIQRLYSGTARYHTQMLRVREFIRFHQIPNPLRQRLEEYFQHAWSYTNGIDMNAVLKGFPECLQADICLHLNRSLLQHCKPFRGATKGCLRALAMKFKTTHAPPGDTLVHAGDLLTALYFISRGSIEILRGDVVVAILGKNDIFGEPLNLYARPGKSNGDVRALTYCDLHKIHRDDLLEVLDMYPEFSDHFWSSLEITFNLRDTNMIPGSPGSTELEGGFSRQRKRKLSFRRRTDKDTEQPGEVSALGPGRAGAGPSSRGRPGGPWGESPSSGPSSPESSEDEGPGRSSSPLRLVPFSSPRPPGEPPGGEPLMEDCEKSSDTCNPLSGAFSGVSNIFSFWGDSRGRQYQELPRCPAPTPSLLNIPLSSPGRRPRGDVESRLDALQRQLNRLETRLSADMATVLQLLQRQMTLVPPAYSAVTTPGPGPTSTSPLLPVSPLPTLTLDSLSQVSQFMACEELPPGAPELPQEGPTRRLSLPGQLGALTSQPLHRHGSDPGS

Compound	hERG current change (%, negative = inhibition) at 1uM [%]
COc1cc(CNC(C)c2ccccc2)cc(Cl)c1OCC(=O)Nc1ccccc1.Cl (stereo not shown)	15
CCC(NC(=O)/C(=C\c1ccc2c(c1)OCO2)NC(C)=O)C(=O)O (stereo not shown)	-0.47
CC(=O)c1ccc(S(=O)(=O)Nc2ccc(C(=O)NCC(c3cccs3)N3CCOCC3)cc2)cc1 (stereo not shown)	15.1
O=C(NCc1ccccc1)c1cc[n+]([O-])cc1	13.1
Cc1nnsc1C(=O)N1CCCC(N2CCN(c3ccc(F)cc3)CC2)C1 (stereo not shown)	12.3
Nc1ccc(C(=O)OCCCc2nc3ccccc3[nH]2)cc1	16.9
Cc1nn(C)cc1-c1n[nH]c(=S)n1-c1ccc(F)cc1	9.47
CCCCSc1nnc(-c2ccc(NC(=O)CCc3ccccc3)cc2)n1C	19.5
CCN1C(=O)[C@@H]2[C@@H](c3ccc(-c4ccccc4)cc3)N3CCCC[C@@]3(C(=O)OC)[C@@H]2C1=O.O=C(O)C(F)(F)F	11
CCOC(=O)C1(Cc2cccc(OC)c2)CCN(Cc2cc(OC)ccc2OC)CC1	-7.48
CCOc1ccc(Cn2c3ccc(OC)cc3c3nc4ccccc4nc32)cc1	13.1
CCOC(=O)CC1COCCN1C(=O)c1cc(COc2ccc(F)cc2Cl)on1 (stereo not shown)	9.6
O=C(N/N=C/c1ccc(Br)o1)c1cncc(Br)c1	7.97
Cc1ccc(C)c(NCc2n[nH]c(=S)n2-c2ccccc2)c1	14
CN(C)c1ccc(/C=C2/C(=N\O)C3CCN2CC3)cc1.Cl	13.6
CCCCCNC(=O)Cc1cc(=O)[nH]c(=O)[nH]1	18.4
O=C(O)CN1C(=O)C(=O)N(Cc2ccc(Cl)cc2Cl)C1=O	15.9
CC(C)CNS(=O)(=O)c1ccc(CCC(=O)N2CCN(c3ccc(F)cc3)CC2)cc1	-9.44
O=c1[nH]c(=O)n(-c2ccc(Cl)cc2)c(O)c1C=NCCN1CCCCC1	13.3
O=C(Nc1cc(N2CCCCC2)ncn1)c1ccc(F)cc1	3.11
Cn1ncc([N+](=O)[O-])c1C(=O)Nc1ccccc1C(=O)O	15.4
CCC1=Nc2cc(C(=O)O)ccc2Sc2ccccc21	14
NNC(=O)CNC(=O)c1ccc(F)cc1	14.9
O=C(/C=C\c1ccco1)Nc1nc(-c2ccc3ccccc3c2)cs1	8.41
Cc1ccc(Cl)c(NC(=S)N(CCCN2CCOCC2)Cc2ccco2)c1	2.83
CCCc1cc(=O)[nH]c(SCC(=O)N2CCN(c3ccc(F)cc3)CC2)n1	-3.04
Cc1ccc(S(=O)(=O)N[C@H](C(=O)OCC(=O)N2N=C(c3ccc(Cl)cc3)CC2c2ccco2)C(C)C)cc1 (stereo partly shown)	1.02
Cc1ccc(C)c(OCCC(=O)OCC(=O)NCCc2ccc(S(N)(=O)=O)cc2)c1	-20.3

Compound	hERG current change (%, negative = inhibition) at 1uM [%]
CC1(C)CC(=NO)CC(C)(C)N1	12
CC(C)=N/N=C1/NC(=O)C(CC(=O)Nc2cc(Cl)ccc2C)S1 (stereo not shown)	7.24
N#Cc1ccccc1OCC(=O)OCC(=O)c1c[nH]c2ccccc12	7.92
CCn1c(=O)c2cc(C(=O)NCc3cccs3)sc2c2ccccc21	15.2
CCOC(=O)C1Sc2[nH]c(=O)sc2C(c2ccc(Cl)cc2)C1C(=O)OCC (stereo not shown)	4.11
O=C1C2C3C=CC([C@@H]2C(=O)N1C1CC1)[C@H]1C(=O)N(C2CC2)C(=O)C31 (stereo partly shown)	10.3
COc1ccc(NC(=S)N2CCN(C(c3ccccc3)c3ccccc3)CC2)c(OC)c1	6.25
Cc1ccccc1-n1c(SCC(=O)NC(N)=O)nc2sc(-c3ccccc3)cc2c1=O	11.6
COc1ccc(OCCSc2ncn[nH]2)cc1	-2.28
COc1ccc(C23CC4CC(CC(C4)C2)C3)cc1C(=O)NCCN(C)C.Cl	15.1
O=C(O)CCC(=O)N1N=C(c2ccccc2)CC1c1cccs1 (stereo not shown)	6.8
O=C(NCc1ccccc1Cl)c1ccccc1CCc1ccccc1	2.9
Cc1cc(C)cc(-n2ccnc2SCC(=O)c2c(N)n(C3CC3)c(=O)[nH]c2=O)c1	5.04
CCOC(=O)Nc1ccc2c(c1)N(C(=O)CCN1CCOCC1)c1ccccc1S2.Cl	19.1
Cc1ccc(SCC(=O)Nc2cc([N+](=O)[O-])ccc2O)cc1	4.97
CCC1=C(OC(=O)N(CC)CC)N2C(=O)OC(=NCc3ccccc3)[C@]2(C)[C@H]2C1=CC[C@H]1C(=O)N(CC(=O)OC)C(=O)[C@H]12	15.5
O=C(Nc1ccccc1)Nc1cc(Cl)cc(Cl)c1	14.3
Cn1cnnc1SC/C(O)=C(\C#N)c1nc2ccccc2[nH]1	11.9
CC(C)N(C(=O)COC(=O)c1ccc(O)cc1)C(C)C	2.03
CCOc1ccc(NC(=O)CN(C)C(=O)C2CCCC2)cc1OCC	16.1
O=P(Nc1ccccc1)(Nc1ccccc1)Oc1ccccc1	12.8
Cc1oc(-c2ccc(Cl)cc2)nc1CS(=O)CC(=O)NCCCN1CCCC(C)C1 (stereo not shown)	16.3
COc1cc(OC)cc(C(=O)Nc2ccc(-c3nc4ccccc4o3)c(O)c2)c1	4.93
N#CC(C#N)=C1C=CC=CN1/C(=C\c1ccco1)C(=O)c1ccc(Br)cc1	-4.87
COc1ccccc1OCCCCCCN1CCN(C)CC1.O=C(O)C(=O)O	12.5
Cc1ccc(NC(=O)c2cccc(S(=O)(=O)N3CCCc4ccccc43)c2)nc1	3.74
O=C(Oc1ccc(OC(=O)N2CCCCC2)cc1)c1ccccc1	4.04
